# About 110 (3.4%) of roughly 3,200 compounds showed an effect of 50% or more. The list shows a part of the results.
# Tested on: T1, V. cholerae SAD30
# T1 construct: SAD30
# Design: species or system S. aureus MSSA476 (TSB) or V. cholerae SAD30 (LB); 384-well bacterial growth screen at 25 uM, OD600 relative to DMSO control
# Conditions: relative growth, OD600, LB; 25 µM; inhibitor
row,Compound,% of control remaining
1,"COc1cc(C=C(C#N)C(=O)NC(C)C)cc(OC)c1 [8-F15, 2-cyano-3-(3,5-dimethoxyphenyl)-N-(propan-2-yl)prop-2-enamide]",73.3515%
2,"O=C(CCl)NC1CCN(C(=O)COc2ccccc2)C1 (centres unmarked) [7-L03, 2-chloro-N-[1-(2-phenoxyacetyl)pyrrolidin-3-yl]acetamide]",100.446%
3,"N#CC(=Cc1ccccc1[N+](=O)[O-])C(=O)Nc1ccc2c(c1)OCCO2 [9-O20, 2-cyano-N-(2,3-dihydro-1,4-benzodioxin-6-yl)-3-(2-nitrophenyl)prop-2-enamide]",84.5003%
4,"CC(Cl)C(=O)NCC(c1ccccc1)c1nnc[nH]1 (centres unmarked) [7-G15, 2-chloro-N-[2-phenyl-2-(4H-1,2,4-triazol-3-yl)ethyl]propanamide]",78.6387%
5,"C=CC(=O)N(C)CC(=O)Nc1ccc(C)c(S(=O)(=O)N(C)C)c1 [3-G04, N-({[3-(dimethylsulfamoyl)-4-methylphenyl]carbamoyl}methyl)-N-methylprop-2-enamide]",98.265%
6,"COc1ccc(C2CCCN2C(=O)CCl)cc1OC (centres unmarked) [6-M03, 2-chloro-1-[2-(3,4-dimethoxyphenyl)pyrrolidin-1-yl]ethan-1-one]",100.256%
7,"CC(Cl)C(=O)c1ccc(NC(=O)C(C)(C)C)cc1 (centres unmarked) [10-M06, N-[4-(2-chloropropanoyl)phenyl]-2,2-dimethylpropanamide]",98.9675%
8,"N#CC(=Cc1cccc(F)c1)C(=O)Nc1ccc(SC(F)F)cc1 [9-N17, 2-cyano-N-{4-[(difluoromethyl)sulfanyl]phenyl}-3-(3-fluorophenyl)prop-2-enamide]",67.3691%
9,"CC(Cl)C(=O)c1ccc(NS(C)(=O)=O)cc1 (centres unmarked) [10-A08, N-[4-(2-chloropropanoyl)phenyl]methanesulfonamide]",98.4999%
10,"CCc1nocc1CN(C)C(=O)CCl [5-B11, 2-chloro-N-[(3-ethyl-1,2-oxazol-4-yl)methyl]-N-methylacetamide]",90.6168%
11,"C=CC(=O)N(C)Cc1cccc(Cl)c1 [2-G09, N-[(3-chlorophenyl)methyl]-N-methylprop-2-enamide]",91.1223%
12,"C=CC(=O)NCC1CSCCS1 (centres unmarked) [1-K07, N-[(1,4-dithian-2-yl)methyl]prop-2-enamide]",89.6861%
13,"CCCn1c(C)cc(C=C(C#N)C(=O)N2CCCCC2)c1C [9-D11, 3-(2,5-dimethyl-1-propyl-1H-pyrrol-3-yl)-2-(piperidine-1-carbonyl)prop-2-enenitrile]",57.308%
14,"COc1cc(NC(=O)CCl)c(Cl)cc1C(=O)O [4-M17, 5-chloro-4-(2-chloroacetamido)-2-methoxybenzoic acid]",98.857%
15,"C=CC(=O)N(Cc1cn(C2CCC2)nn1)c1ccc(F)cc1 [1-G09, N-[(1-cyclobutyl-1H-1,2,3-triazol-4-yl)methyl]-N-(4-fluorophenyl)prop-2-enamide]",88.1913%
16,"C=CC(=O)N1CC(c2cc(CO)on2)C1 [1-K20, 1-{3-[5-(hydroxymethyl)-1,2-oxazol-3-yl]azetidin-1-yl}prop-2-en-1-one]",100.299%
17,"C=CC(=O)N1CCC(C(=O)N(C)C2CCCc3c2cnn3C)CC1 (centres unmarked) [2-P12, N-methyl-N-(1-methyl-4,5,6,7-tetrahydro-1H-indazol-4-yl)-1-(prop-2-enoyl)piperidine-4-carboxamide]",97.2981%
18,"CC(Cl)C(=O)NCc1cc2sccc2s1 (centres unmarked) [6-B07, 2-chloro-N-({thieno[3,2-b]thiophen-2-yl}methyl)propanamide]",91.4589%
19,"CC(Cl)C(=O)N1CC(S(=O)(=O)c2ccccc2F)C1 (centres unmarked) [7-M15, 2-chloro-1-[3-(2-fluorobenzenesulfonyl)azetidin-1-yl]propan-1-one]",82.075%
20,"CC(Cl)C(=O)N1CCCN(C)c2cc(F)ccc21 (centres unmarked) [6-N16, 2-chloro-1-(7-fluoro-5-methyl-2,3,4,5-tetrahydro-1H-1,5-benzodiazepin-1-yl)propan-1-one]",82.8135%
21,"C=CC(=O)N(C)CC(=O)NCc1c(O)nnc(C)c1C [2-I20, N-({[(3-hydroxy-5,6-dimethylpyridazin-4-yl)methyl]carbamoyl}methyl)-N-methylprop-2-enamide]",95.9085%
22,"Cc1c(CN(CC2CC=CCC2)C(=O)CCl)cnn1C (centres unmarked) [5-C14, 2-chloro-N-[(cyclohex-3-en-1-yl)methyl]-N-[(1,5-dimethyl-1H-pyrazol-4-yl)methyl]acetamide]",92.9705%
23,"C=CC(=O)N1CCC(C(=O)NCc2ncccc2OC)CC1 [3-H05, N-[(3-methoxypyridin-2-yl)methyl]-1-(prop-2-enoyl)piperidine-4-carboxamide]",97.03%
24,"O=C(O)C1CCN(C(=O)CCl)CC1 [6-O11, 1-(2-chloroacetyl)piperidine-4-carboxylic acid]",91.0039%
25,"C=CC(=O)Nc1ccc2c(c1)OCCCO2 [1-G20, N-(3,4-dihydro-2H-1,5-benzodioxepin-7-yl)prop-2-enamide]",89.6861%
26,"Cc1ccc(NC(=O)NC(=O)C(C)Cl)c(C)c1 (centres unmarked) [6-J04, 3-(2-chloropropanoyl)-1-(2,4-dimethylphenyl)urea]",87.2121%
27,"C=CC(=O)N1CCC(C2CCOC2)C1 (centres unmarked) [1-H06, 1-[3-(oxolan-3-yl)pyrrolidin-1-yl]prop-2-en-1-one]",121.933%
28,"CCCCNC(=O)C(C#N)=Cc1cccc(Cl)c1Cl [9-H11, N-butyl-2-cyano-3-(2,3-dichlorophenyl)prop-2-enamide]",86.1319%
29,"C=CC(=O)NC1CCCCC12CCCC2 (centres unmarked) [1-F16, N-{spiro[4.5]decan-6-yl}prop-2-enamide]",65.5054%
